Measured values as given in PMC12136788.
The other results are listed elsewhere or left out.

T1: UNK ZnF1-3 (human, UniProt Q9C0B0 31-174)
T1 sequence: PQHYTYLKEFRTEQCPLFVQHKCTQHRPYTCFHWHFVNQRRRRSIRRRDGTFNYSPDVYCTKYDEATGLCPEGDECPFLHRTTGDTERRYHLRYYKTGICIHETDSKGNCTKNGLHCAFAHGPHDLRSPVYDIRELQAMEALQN

B1: 29300206_29322573_937_3pUTR_ENSMUSG00000032740_ENSMUST00000040182|mouse|control|control (ssRNA)
RNA: GGGAGUUCUACAGUCCGACGAUCGCAAUGGCAUCAUAAUCAACUGCUGCAAAGUCUCCUGAUAAUAAAAUUUUAUCUGUUUCACCAAAAUGGACAGAUUGUGAAUUCUAAGGGAAGCAUCAUUGUUGACUUUUUUAUUUACUCCAACAGAGGAUUGAGCAUCA
B2: 78014774_78015461_2047_3pUTR_ENSMUSG00000009828_ENSMUST00000044551|mouse|control|control (ssRNA)
RNA: GGGAGUUCUACAGUCCGACGAUCGUGUGAAAGAAAGGCCUCCCCGGGUGAGGUCUCACGGCCUUGAGGGAAGAGUAGCCGGGGGGAGGGGCUGCGAGGGGCGCCAGCUGAACCCUCUGCAUGACAGAACCGAUUUCCUUUUUCCAACAGAGGAUUGAGCAUCA
B3: chr14:76904430:76904431:+_ENSMUSG00000022010_ENSMUST00000022587|mus_mus|mus_mus_mus_hu_True|88_108 (ssRNA)
RNA: GGGAGUUCUACAGUCCGACGAUCUGCUGGAAAAAAAACCCUCGUGGCGGGAGGGAGGGAACACCAGCAGCCUUGUAUAAGCUAGAUAAAAUCUUCUGGCUUUCCGCAGCCCAGGGAGAAACAGAAAACGGCAGCCCUAAUUUACAACAGAGGAUUGAGCAUCA
B4: chr12:55961067:55961068:-_ENSMUSG00000062929_ENSMUST00000078124|mus_hu|FALSE|FALSE (ssRNA)
RNA: GGGAGUUCUACAGUCCGACGAUCCUAAUUUAUCCAGAGAACAAAUCAGAUAUUGAAAAGUAUUUAUGCCAAAGUGCAAAAAAUAAUUUCUGAUCUUCAUAUUAACACAUAGGAAAUAAAUACACUAAUGUUUAUAAAAGUACCCAACAGAGGAUUGAGCAUCA
B5: chr11:21048517:21048518:+_ENSMUSG00000020134_ENSMUST00000093290|mus_mus|FALSE|FALSE (ssRNA)
RNA: GGGAGUUCUACAGUCCGACGAUCAACCCAAUCACUUAGCUUAUAAACUUACAAUGCAGUCCUGGAGGACAGCUGCUAGUCUAAAGGUCCUUGGAAAAUAAGUCUGAUAUAGCCUUGUUCACCAGCCAACUGAUGUGCACAGAACAACAGAGGAUUGAGCAUCA
B6: 176118189_176132103_288_CDS_ENSG00000143207_ENST00000367666|human|control|control (ssRNA)
RNA: GGGAGUUCUACAGUCCGACGAUCUAGUUGGGCUGCAUGUGAUUCUGCUUCCAGUUGUUUCUUCUUCUGCACUAGUAACUCCAACAUAAGAUUGACAUUGGCCAAAUCAAGGUUAUCUUGGUCAGUUCCCAACCAAUCUUGAAACAACAGAGGAUUGAGCAUCA

The binders below were run against T1, UNK ZnF1-3 (assay: nsRBNS (natural sequence RNA bind-n-seq); RBNS binding buffer (assumed for nsRBNS): 25 mM Tris pH 7.5, 150 mM KCl, 3 mM MgCl2, 0.01% Triton X-100, 500 ug/ml BSA, 20 U/ml SUPERase-In, 4 C; UNK is unkempt and MSI1 is Musashi-1; names of the RNAs are library labels; protein concentration not given here; high values mean tight binding).

Binder	binding signal [enrichment R]
B1	1.37
B2	0.887
B3	1.86
B4	1.41
B5	1.45
B6	0.814
